Laboratory results published in patent US10745735B2 (priority 2013, dated 2020).
Like-named read-outs stand apart in the source and are kept apart here.

Key:
BL21 E. coli = system: BL21 E. coli
From the text: LPS were extracted after culture in the presence or absence of KDO or KDO-azide overnight, and fluorescence labeling by Alexa-alkyne was detected by SDS-PAGE. LPS silver stain is shown above and in-gel fluorescence is shown below.
FIG. 7C: Unnatural sugar incorporation and fluorescence labeling of BL21 E. coli after culture for five hours in phosphate-buffered saline in the presence of KDO or KDO-alkyne and reaction with Alexa488-azide.
Fluorescent signal was detected above background for bacteria cultured in the presence of functionalized KDO.

gram negative bacteria = conditions: Dumont 2012; cited from earlier work

Compound: CC1(COC(=O)NC[C@@H](O)C2OC(O)(C(=O)O)C[C@@H](O)[C@H]2O)CCC=[N+]1[O-] (stereo partly shown) [KDO-nitrone]
- incorporation into E. coli LPS molecules (BL21 E. coli): shown to be incorporated into E. coli LPS molecules

Compound: [N-]=[N+]=NC[C@@H](O)C1OC(O)(C(=O)O)C[C@@H](O)[C@H]1O (stereo partly shown) [KDO-azide]
- incorporation into E. coli LPS molecules (BL21 E. coli): confirming KDO-azide incorporation into LPS molecules
- incorporation into LPS molecules of outer membrane (gram negative bacteria): shown to be incorporated into the LPS molecules

Compound: C#CCCC(=O)NC[C@@H](O)C1OC(O)(C(=O)O)C[C@@H](O)[C@H]1O (stereo partly shown) [KDO-alkyne]
- incorporation / fluorescent signal after 5 h culture (BL21 E. coli): incorporated KDO-alkyne while suspended in PBS
- incorporation into E. coli LPS molecules (BL21 E. coli): shown to be incorporated into E. coli LPS molecules

Compound: C#CCCC(N)C(=O)O (stereo not shown) [HPG, homopropargylglycine]
- contact time after which incorporation of HPG into expressed/surface protein is detected (BL21 E. coli cells): 30 min
- contact time after which incorporation of HPG into expressed/surface protein is detected (BL21 E. coli cells; HPG 50 μg/ml, M9 media, methionine biosynthesis inhibited, 37° C.): thirty
